Source: the supplement of paper PMC11417369
± gives the standard deviation of the averaged measurements. The list shows a part of the results.

These sequences were tested on PfAP2-EXP AP2 domain (GST-tagged) (assay: gcPBM binding intensity (ln(normalized median fluorescence intensity)); higher = stronger DNA binding).
In short: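 Binding intensity is the highest Masliner-normalised natural-log median intensity over replicate spots in either probe orientation. To obtain it, GST-tagged P. falciparum DNA-binding domains made in E. coli were incubated for 1 h on an Agilent 4 × 180k array of primer-extended double-stranded 36-bp intergenic genomic probes plus negative controls. Detection used Alexa488 anti-GST antibody with scanning at 488 nm.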
In the case of “TAAAAGTTCACCTGTACACACATATATATCTGTACA [CACACA_site5019]”, the “gcPBM binding intensity (ln)” value is reported as 8.68 ± 0.36.
With “AAAAAATAAAAGTGGGGTACATGTCATTATGTGCAT [XGTACX_site3753]” the “gcPBM binding intensity (ln)” value was 8.86 ± 0.4.
CAAAATATTATCATGATGCACTTTACACTCTAAGGT was tested, and the “gcPBM binding intensity (ln)” value was 8.59 ± 0.21.
With “TATTTTTAAAAGTTAACAGAAAAAATATAAATAAAT [GTGCAC_negctrl_site295]” the “gcPBM binding intensity (ln)” value was 8.5 ± 0.81.
“TGGTATATACGACACACACACATATGTATAAATATA [CACACA_site6561]” was tested, and the “gcPBM binding intensity (ln)” value was 8.94 ± 0.41.
With “TGTAATAAAATAATTAGTACACATATATGTATATTT [XGTACX_site5896]” the “gcPBM binding intensity (ln)” value was 8.31 ± 0.29.
In the case of “TACCATAATCAATGCACACATAACAAAATATTATTA [CACACA_site2722]”, the “gcPBM binding intensity (ln)” value is reported as 8.38 ± 0.32.
In the case of “TTTTCCCTTTTTTCCGCACACAATAAAATAAATAAA [CACACA_site2807]”, the “gcPBM binding intensity (ln)” value is reported as 8.71 ± 0.32.
“ATATATATATAATGTTGTACGTTTTATTCTCCCATT [XGTACX_site8071]” was tested, and the “gcPBM binding intensity (ln)” value was 9.72 ± 0.23.
For “TTTATCATGAACAGAAGTACATTTATATCAATGTCT [XGTACX_site6470]”, the “gcPBM binding intensity (ln)” value was 8.35 ± 0.39.
“ATATATATATATTTTACACACAATGGAGAAAAAAAT [CACACA_site644]” was tested, and the “gcPBM binding intensity (ln)” value was 9.75 ± 0.26.
With “TTTACACTTTTTTTTGTACACACTAAAAAGATTAAC [CACACA_site3933]” the “gcPBM binding intensity (ln)” value was 8.62 ± 0.35.
“TTTTTCAGAAAAGAAACACACATATAAATATTTATA [CACACA_site7170]” was tested, and the “gcPBM binding intensity (ln)” value was 8.47 ± 0.46.
“AAAAAAAAAAAAAAAACACACAAGGATCAGATAGAT [CACACA_site7743]” was tested, and the “gcPBM binding intensity (ln)” value was 8.48 ± 0.099.
“TGTTGTTACCTATATACACACATATAAATATTATAG [CACACA_site7180]” was tested, and the “gcPBM binding intensity (ln)” value was 8.65 ± 0.47.
With “AATATTATGATATTATGTACATATTAAAAGCACCAC [XGTACX_site6236]” the “gcPBM binding intensity (ln)” value was 9.24 ± 0.21.
For “AGGGCATATATATATGCACACATACATATATACATG [CACACA_site9282]”, the “gcPBM binding intensity (ln)” value was 8.42 ± 0.38.
With “AAAAAAAAAAAAAAAAAAACTAATATAATAAAAATA [TGCATGCA_negctrl_site150]” the “gcPBM binding intensity (ln)” value was 8.6 ± 0.057.
With “AAAAAAATAATATAATATTAAATCTTAGTTAATAAA [GTGCAC_negctrl_site658]” the “gcPBM binding intensity (ln)” value was 7.92 ± 0.33.
In the case of “TATGCATATACACAAGCACACATATATATATATATA [CACACA_site8266]”, the “gcPBM binding intensity (ln)” value is reported as 10.1 ± 0.32.
In the case of “TTTTTTTTTTTTTACACACCCAAATCACATACATAT [CACACA_site6089]”, the “gcPBM binding intensity (ln)” value is reported as 8.59 ± 0.44.
With “TTTTTTTTTTTTTTTTCTTTTTTTTTTTTAAATAAG [XGTACX_negctrl_site418]” the “gcPBM binding intensity (ln)” value was 7.88 ± 0.32.
In the case of “TATAATAAATATACTGGTACACAAATATATATATTT [XGTACX_site7741]”, the “gcPBM binding intensity (ln)” value is reported as 8.48 ± 0.32.
“AACATCTTATCATCATGTACGAAGCAGTTTTATAAG [XGTACX_site2490]” was tested, and the “gcPBM binding intensity (ln)” value was 8.59 ± 0.52.
“ATATTATATTTACATAGTACACTATATGTATATATA [XGTACX_site2101]” was tested, and the “gcPBM binding intensity (ln)” value was 8.26 ± 0.13.
“TGTAATTTTTTACGTTGTACATATATTAACAATATA [XGTACX_site3991]” was tested, and the “gcPBM binding intensity (ln)” value was 8.5 ± 0.31.
With “TAAAAAAGAAAAAGAGCACACAAAAATATTTAACCT [CACACA_site8885]” the “gcPBM binding intensity (ln)” value was 8.71 ± 0.59.
For “TATATATTTATATATTGTACACTCTTATGTAGTGTA [XGTACX_site210]”, the “gcPBM binding intensity (ln)” value was 8.29 ± 0.3.
“TTACATATTTTCATTTGTACATATTCATTTTTTTTC [XGTACX_site6988]” was tested, and the “gcPBM binding intensity (ln)” value was 8.71 ± 0.47.
AAATAACCCACGTGCATGCACTTCAATAACTGAACT was tested, and the “gcPBM binding intensity (ln)” value was 10.1 ± 0.27.
In the case of “ATTTTTATATTTAATACACACATAAAATCATACCAT [CACACA_site23]”, the “gcPBM binding intensity (ln)” value is reported as 8.65 ± 0.41.
For “ATGTCAGGGAAAAAAACACACAAGAGTATGATATGT [CACACA_site2180]”, the “gcPBM binding intensity (ln)” value was 8.7 ± 0.35.
“TAACCAAAAAAAAATATTTAAAATAAATATATATAT [CACACA_negctrl_site1516]” was tested, and the “gcPBM binding intensity (ln)” value was 9.425 ± 0.021.
For “ATAACATACATAACAACACACAATATTTATAGGTAT [CACACA_site6243]”, the “gcPBM binding intensity (ln)” value was 8.73 ± 0.57.
In the case of “TTTAGTTCATACTATGCACACTACGTATATTTTTAA [CACACA_site5484]”, the “gcPBM binding intensity (ln)” value is reported as 8.7 ± 0.26.
In the case of “TATTTTCTCTTAAAAAGTACTCATATATACATTTAT [XGTACX_site7748]”, the “gcPBM binding intensity (ln)” value is reported as 8.38 ± 0.15.
For “ATTAATAAGAAGAAAAGTACAAAACAAAAAGATATA [XGTACX_site7473]”, the “gcPBM binding intensity (ln)” value was 9.03 ± 0.5.
With “CGTTATATATTTTATAGTACTTTTTGTAAATTTTTT [XGTACX_site7682]” the “gcPBM binding intensity (ln)” value was 8.6 ± 0.38.
For “AACATTTTAAAATAATGTACTTGAAAAAAAAACTAC [XGTACX_site8894]”, the “gcPBM binding intensity (ln)” value was 8.73 ± 0.49.
With “TGTTCTAATATTTGTTGTACGTTTACGTTTCTCTCT [XGTACX_site18]” the “gcPBM binding intensity (ln)” value was 8.88 ± 0.45.
For “CATATAAATAAATATACATGCATACATACATATATA [TGCATGCA_site713]”, the “gcPBM binding intensity (ln)” value was 8.51 ± 0.23.
For “TATTTAAGAGTATGAACACACATCATACCCATATAA [CACACA_site5911]”, the “gcPBM binding intensity (ln)” value was 8.31 ± 0.47.
In the case of “ATTTAACCAAATAATATATTTAAAAAATAGTCACAT [CACACA_negctrl_site274]”, the “gcPBM binding intensity (ln)” value is reported as 8.36 ± 0.39.
In the case of “TTAATTTATGTTAATGGTACGTAAATGCATTTATTT [XGTACX_site3002]”, the “gcPBM binding intensity (ln)” value is reported as 8.51 ± 0.31.
For “TATAATATATGAAAAAGTACAAATATTTCGATGGTC [XGTACX_site129]”, the “gcPBM binding intensity (ln)” value was 8.66 ± 0.32.
